Experimental data published in paper PMC7819943, “Rice protein-binding microarrays: a tool to detect cis-acting elements near promoter regions in rice”.
Some of the results follow.

Biological target: T1, OsWOX13 (Oryza sativa, UniProt Q5QMM3 1-267)
T1 sequence: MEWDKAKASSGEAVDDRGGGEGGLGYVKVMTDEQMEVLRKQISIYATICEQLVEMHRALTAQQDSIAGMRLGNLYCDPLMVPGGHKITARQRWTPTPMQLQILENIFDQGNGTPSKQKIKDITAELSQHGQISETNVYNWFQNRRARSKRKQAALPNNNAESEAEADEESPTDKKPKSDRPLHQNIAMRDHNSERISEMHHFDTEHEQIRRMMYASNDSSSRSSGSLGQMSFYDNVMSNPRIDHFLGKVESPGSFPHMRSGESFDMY
Test: protein-binding microarray (RPBM); PBS, 2% BSA, 51.3 ng/ul salmon testes DNA, 50 uM zinc acetate, 200 nM TF, 25 C, 1 h; high values mean tight binding
Conditions: protein: recombinant; tags: N-terminal polyhistidine and DsRed monomer fusion (pET32a); label: CyDye5-dUTP incorporated in the synthesized complementary strand; 3' TTTTT single-stranded linker to array surface; dsDNA, one strand shown
In short: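 Binding signal is reported as fluorescence intensity per feature (arbitrary units) from an Axon 4000B scanner. Incubation used 200 nM of each Ni–NTA-purified, N-terminally polyhistidine- and DsRed-fused transcription factor from E. coli BL21-CodonPlus on a double-stranded custom Agilent array for 1 h at 25 °C, with 50 µM zinc acetate in the buffer, followed by washing.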

Sequence	binding signal
GAACTAAACAAAGCATATGATTTGAGAGCATACCAGTCTGCGGAGTCACCTAGTGCAG	3230 fluorescence intensity (a.u.)
TCGCCTGATTGCTCTTGACGTCTTGCAATGATGGCGCGCTCGGAGTCACCTAGTGCAG	47800 fluorescence intensity (a.u.)
CTGACAGATCTAAACACATGCCCTGTTTAGATCACACATACGGAGTCACCTAGTGCAG	6900 fluorescence intensity (a.u.)
CCTGATGACGCTTTATGATGCTTATTTGTCTTCGCTGATGCGGAGTCACCTAGTGCAG	8290 fluorescence intensity (a.u.)
GCCCGTTCAAGAACTGATAATTGAATCTCTGATTGTCTGTCGGAGTCACCTAGTGCAG	11800 fluorescence intensity (a.u.)
ATATTCAAATTTTGATTTATGAAATTTGTTCAGAATTTACCGGAGTCACCTAGTGCAG	4110 fluorescence intensity (a.u.)
CAAGATTAACGGACGTACGGCTCCGACTCCGAGAGGCGAGCGGAGTCACCTAGTGCAG	3710 fluorescence intensity (a.u.)
AGCCTAATTATCCATTATTAGCACATGTGGGTTATTGTAGCGGAGTCACCTAGTGCAG	36300 fluorescence intensity (a.u.)
GAGATCGAAATTTTCGGTTAGACTGAATGCCCACCCCTACCGGAGTCACCTAGTGCAG	3860 fluorescence intensity (a.u.)
CAGTTAGAACTGTCAATCTCATCAGGAAATTACCCAGGAACGGAGTCACCTAGTGCAG	7500 fluorescence intensity (a.u.)
GAAATTGAAATGTAGATATTATATTCGTCCTTCGCAACCTCGGAGTCACCTAGTGCAG	18600 fluorescence intensity (a.u.)
ACTGACAGACAGGTAACCATACTCTGTTTTCCCCTGTTCTCGGAGTCACCTAGTGCAG	28100 fluorescence intensity (a.u.)
GTGGGTTGAGATGATTGTTAGTAACAAAAGTTTAGTAAGACGGAGTCACCTAGTGCAG	12600 fluorescence intensity (a.u.)
TCAACAATCAAGAAAATGGCACCAGCAATTGAAAGAAGTGCGGAGTCACCTAGTGCAG	4470 fluorescence intensity (a.u.)
CATTCAAATTTCAATCAAACTTACAATTTTGACGTGAACTCGGAGTCACCTAGTGCAG	29600 fluorescence intensity (a.u.)
TTTCAATTTCAATCAAACATTCAATTTTAGCGTGAACTAACGGAGTCACCTAGTGCAG	14000 fluorescence intensity (a.u.)
TTTCATTTATTCATTGTGCTAATTAGCGGTCAAAATTGGTCGGAGTCACCTAGTGCAG	11400 fluorescence intensity (a.u.)
TATATGTTAATGAATCTTGACACATATATAATAAACCGTGCGGAGTCACCTAGTGCAG	3290 fluorescence intensity (a.u.)
TGGATTGGATTAGATAATTTCTCCAACTCAGCGTCACAAACGGAGTCACCTAGTGCAG	17700 fluorescence intensity (a.u.)
GTAATTGAGACCCCGCCTCCATCAAACACAGCACATACGCCGGAGTCACCTAGTGCAG	7310 fluorescence intensity (a.u.)
GCCCGACTTACTATAACATTGATTGTTATGTCACTTGTCTCGGAGTCACCTAGTGCAG	9290 fluorescence intensity (a.u.)

Sequence	binding signal
TTCTTTCATCAATTACTAGGCCTAGATGGGTAATTTTGGTCGGAGTCACCTAGTGCAG	14300 fluorescence intensity (a.u.)
ATTCAATCAATTATATATATATATATATATATATATATATCGGAGTCACCTAGTGCAG	7480 fluorescence intensity (a.u.)
TAAACTTATTCCGAGTATTGATTGCCACATTAAGCCTGCCCGGAGTCACCTAGTGCAG	12500 fluorescence intensity (a.u.)
CCAAATTAATCATATTGAACAGTAGAGAAATCACCTTTGTCGGAGTCACCTAGTGCAG	14000 fluorescence intensity (a.u.)
TCAGGAAAATTGATGCATCATTGTACTCGCTAATCCTTGCCGGAGTCACCTAGTGCAG	12100 fluorescence intensity (a.u.)
CCTAATTAATCCGTCATTAGCAAATGTTTATTGTAGCACCCGGAGTCACCTAGTGCAG	41300 fluorescence intensity (a.u.)
TGAGTAGATGATTATAAATCACGTTGATCTTGCTGAAATTCGGAGTCACCTAGTGCAG	9020 fluorescence intensity (a.u.)
ACTCAAATTGTTCTGGAAATGATTTATGTTCTTTTATCTGCGGAGTCACCTAGTGCAG	11300 fluorescence intensity (a.u.)
GAAACAGATTATTGAGCGAATTGTTTCTATAGATTATCTACGGAGTCACCTAGTGCAG	5530 fluorescence intensity (a.u.)
AATCTAAATTGAATATATTTTGATAATATGTTTGTTTTGTCGGAGTCACCTAGTGCAG	20000 fluorescence intensity (a.u.)
GTGTGTCCCTTTAGCTTAATTTGCAGCTAATTCAATCTCACGGAGTCACCTAGTGCAG	4870 fluorescence intensity (a.u.)
TAAACAAGCCCTTTAATTAATTAACTATCTTGGCAACTCCCGGAGTCACCTAGTGCAG	13500 fluorescence intensity (a.u.)
CAGTAATTTACGTTTAATACTCTTAAATAACGAGATTCCGCGGAGTCACCTAGTGCAG	9250 fluorescence intensity (a.u.)
GGTGATCGATAATTCCCGAGATGTTGTAAGACGACACATACGGAGTCACCTAGTGCAG	4320 fluorescence intensity (a.u.)
ATCGATCGTAATTACGTTAGGGCAAATTCTAGTCATCTATCGGAGTCACCTAGTGCAG	9480 fluorescence intensity (a.u.)
CGCGTTGTTAATTAAACCCCGGACAGATTGCATAATCACTCGGAGTCACCTAGTGCAG	17900 fluorescence intensity (a.u.)
TAACTAATTACGCAGATTGCGACTAATTTGCGAGATGAATCGGAGTCACCTAGTGCAG	33300 fluorescence intensity (a.u.)
GATTTGATTTGATTATACTGGATGGGAAATGGGAGGTGGACGGAGTCACCTAGTGCAG	37800 fluorescence intensity (a.u.)
GCTGACGTGGCAATCTAATCACCATCTAAGTCAGCAAGATCGGAGTCACCTAGTGCAG	18900 fluorescence intensity (a.u.)
AATCAACCCGTACCAATTAATGATAGAGCTACCACTGAACCGGAGTCACCTAGTGCAG	3400 fluorescence intensity (a.u.)
AACTCTAATTATAAATCAATAAATTCGTCAAAGAAAATCACGGAGTCACCTAGTGCAG	27700 fluorescence intensity (a.u.)
